The campaign covered roughly 48,000 compounds. About 1,200 (2.5%) were called active. Roughly 2% stayed inconclusive and do not appear here.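 How the source made its calls: active means activation of at least 60% and not above a set upper limit (about 1 call in 100 departs from these limits); inconclusive means activation of 40% to 60%, or above that upper limit; inactive means activation under 40%.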 Some of the results follow.

This test addresses Probable G-protein coupled receptor 32 (Homo sapiens) (UniProt O75388). Nature of the test: qHTS for Agonists of Human Resolvin D1 Receptor DRV1. Further: 0% is about no effect. The conditions noted are these: CHO-K1 GPR32 beta-arrestin PathHunter luminescence, 90 min; at 76.9 µM; active compounds read high; zero percent set by DMSO-only wells. Put shortly: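 Cells are plated overnight, treated with compounds in DMSO for 90 minutes at 37 °C, and developed with PathHunter detection reagent for 1 hour before luminescence is read; signal reflects beta-arrestin binding to GPR32 in engineered CHO-K1 cells.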
Sequence of UniProt O75388 (O75388 whole entry, looked up): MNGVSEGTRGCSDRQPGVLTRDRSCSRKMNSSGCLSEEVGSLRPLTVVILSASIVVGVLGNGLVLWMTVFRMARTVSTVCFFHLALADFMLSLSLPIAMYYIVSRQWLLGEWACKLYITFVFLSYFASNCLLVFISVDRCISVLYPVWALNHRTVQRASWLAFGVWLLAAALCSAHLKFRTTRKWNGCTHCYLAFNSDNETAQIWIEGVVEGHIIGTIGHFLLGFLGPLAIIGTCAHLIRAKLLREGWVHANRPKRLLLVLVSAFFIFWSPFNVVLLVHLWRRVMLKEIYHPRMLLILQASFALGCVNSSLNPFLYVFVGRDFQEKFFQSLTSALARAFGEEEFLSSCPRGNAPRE
(In general: In qHTS, concentration-response curves come from the screen itself.)
Take `Cc1ccc(N(CC(=O)Nc2ccc(F)cc2F)S(=O)(=O)c2cccs2)cc1`: the activation was inactive: -1.06%. The result for `Cc1ccc(S(=O)(=O)NCCc2nnc3ccc(SCc4ccccc4F)nn23)cc1` reads inactive: -24.4%; that for `COCCn1c(SCC(=O)Nc2cccc(C)c2C)nc2c(oc3ccccc32)c1=O`, inactive: -34.1%; that for `COc1ccc(CCNC(=O)c2cc3c(-c4ccc(OC)c(OC)c4)nn(C)c3s2)cc1OC`, inactive: 5.97%. The result for `Cc1cc(-c2ccc(S(=O)(=O)Nc3cc(Cl)ccc3C)s2)on1` reads inactive: -5.22%; that for `Cc1ccc(Cl)cc1N1CCN(C(=O)c2ccc(CS(=O)(=O)c3ccc(Br)cc3)o2)CC1`, inactive: 10.4%; that for `Cc1oc2ncn(C)c(=O)c2c1C(=O)N(Cc1ccccc1)C(C)C`, inactive: -8.22%. The result for `Cc1ccc(Cn2c(CO)cnc2SCc2cccc(F)c2)cc1` reads inactive: 22.4%. `Cc1ccc(Cl)cc1N1CCN(C(=O)CCn2c(=O)c3cccn3c3cccnc32)CC1`: the activation is inactive: -15.6%. For the compound `CCOC(=O)c1c(C)[nH]c(CCC(=O)NCc2cccc(OC)c2)c1C`, the activation was inactive: -4.41%. The result for `Cc1oc2ccc(O)c(CN3CCCCC3C)c2c1C(=O)Nc1ccccc1` (stereo not drawn) reads inactive: 17.8%.

For the compound `O=C(CCc1ccccc1)N1CCc2c([nH]c3ccccc23)C1c1ccc(Cl)cc1` (stereo not drawn), the activation is inactive: -39.6%. The result for `CCc1ccccc1NC(=O)CSc1nc2ncccc2o1` reads inactive: -5.03%; that for `Cc1cccc(CC(=O)NC2CC(=O)N(c3ccccc3)C2)c1` (stereo not drawn), inactive: -4.51%; that for `COc1ccc(C(CNC(=O)Cc2ccc(Cl)cc2)N2CCOCC2)cc1` (stereo not drawn), inactive: -1.88%. The result for `O=C(CSc1nc(=O)n(CCN2CCOCC2)c2c1CCC2)Nc1cccc(Cl)c1` reads inactive: -11.4%; that for `O=C(CC(c1cccs1)N1Cc2ccccc2C1=O)Nc1ccc(F)cc1F` (stereo not drawn), inactive: -2.66%; that for `Cc1cc2c(cc3c(SCc4cccc(F)c4)nnc(C)n32)o1`, inactive: -32.1%. The result for `Cc1cccc(C(=O)N2CCC(N3CCN(Cc4ccc(F)cc4)C(=O)C3=O)CC2)c1` reads inactive: -10.4%.

Regarding `Cc1ccc(O)c(NC(=O)c2cc(-c3ccc(F)cc3)on2)c1`, the activation is inactive: -0.444%.

For `COc1cc(NC(=O)CN2C(=O)C(c3ccc(Cl)cc3)=NC23CCCCC3)cc(OC)c1`, the activation is inactive: -28.7%. The result for `CC(C)c1ccc(C2c3c(oc4ccc(Cl)cc4c3=O)C(=O)N2CCCN2CCOCC2)cc1` (stereo not drawn) reads inactive: -18.6%; that for `Cc1ccc(C2=CC(c3ccc(Cl)cc3)n3nc(-c4ccc(C)cc4)nc3N2)cc1` (stereo not drawn), inactive: -16.4%. The result for `COc1ccc(NC(=O)CCc2nc3cccnc3n2-c2ccccc2)cc1Cl` reads inactive: 10.1%; that for `O=c1c2c3c(sc2n(Cc2ccccc2F)c(=O)n1-c1ccc(Cl)cc1)CCCC3`, inactive: 8.04%; that for `COC(=O)c1ccc(Cl)cc1NC(=O)NC(C)c1c(-n2cccc2)sc(C)c1C` (stereo not drawn), inactive: -25.6%. With `O=C(O)C1(C(=O)O)CCC1.[NH2-].[NH2-].[Pt+2]` the figure was inactive: 43.1%; with `Cc1ccc2nc(NC(=O)c3ccc(S(=O)(=O)N4CCCc5ccccc54)cc3)sc2c1`, inactive: -17.2%; with `COCCCn1c(=O)c2sccc2n2c(CCCC(=O)Nc3ccc(F)c(F)c3)nnc12`, inactive: -6.22%. Take `COc1ccc(OC)c(NC(=O)c2c(NCc3ccc(OC)c(OC)c3)sc3c2CCC(C)C3)c1` (stereo not drawn): the activation is inactive: -11.6%. With `O=C(C1CCCCC1)N(Cc1cccnc1)c1nc2c(F)cc(F)cc2s1` the figure was inactive: -29.5%; with `CCN1CCOC(=O)C1CC(=O)Nc1ccc(C)c(Cl)c1` (stereo not drawn), inactive: 39.7%; with `COc1ccc(CNC(=O)CCC2N=C3c4ccccc4N=C(SCc4ccc(F)cc4)N3C2=O)cc1` (stereo not drawn), inactive: -3.93%. For the compound `Cc1ccccc1-c1nc2scc(CCNC(=O)C(=O)Nc3ccc(F)cc3F)n2n1`, the activation is inactive: 42.1%.

Turning to `Cc1cc(C)nc(NS(=O)(=O)c2ccc(NC(=O)c3cc(=O)c4ccc(C)c(C)c4o3)cc2)n1`, the activation is inactive: 22.6%.

Consider `CN1CCN(C2(CNC(=O)c3ccc([N+](=O)[O-])cc3)CCCCC2)CC1`, for which the activation is inactive: -8.31%.

`O=C(CSc1nc2c([nH]c3ccccc32)c(=O)n1-c1ccccc1)c1ccc(Cl)cc1`: the activation is inactive: -8.94%. With `COc1cc(NS(=O)(=O)c2ccc3[nH]c4c(c3c2)CCCC4)cc(OC)c1OC` the figure was active: 82.2%; with `Nc1c(C(=O)NCCc2ccccc2)nnn1CC(=O)Nc1ccc(Cl)cc1`, inactive: -5.06%. With `Cc1ccc(Nc2c(-c3ccc(N4CCOCC4)cc3)nc3c(C)cccn23)cc1` the figure was inactive: -28.2%. Consider `COc1ccc(CC(=O)Nc2ccc3nc(Nc4cccc(Cl)c4)cc(C)c3c2)cc1`, for which the activation was inactive: -18.8%. Consider `CCOC(=O)C1CCCN(c2c(C(=O)c3ccc(C)cc3)cnc3ccc(OCC)cc23)C1` (stereo not drawn), for which the activation was inactive: -60.6%.

As for `CCOC(=O)c1ccc(NC(=O)CCCc2nc(-c3cc(OC)c(OC)c(OC)c3)no2)cc1`, the activation is inactive: -12.6%. For `CCCNC(=O)C1CCC(Cn2c(=O)c3sccc3n(CC(=O)NCc3ccccc3)c2=O)CC1` (stereo not drawn), the activation is inactive: -6.11%. With `O=C(CN1C=NS(=O)(=O)c2ccccc21)Nc1ccccc1F` the figure was inactive: 3.99%; with `O=C(NCc1ccccc1F)C1CCCN(C(=O)N2CCOc3ccccc32)C1` (stereo not drawn), inactive: -14.7%; with `Cc1nn(CCCC(=O)NCc2ccccc2Br)c(=O)c2c1sc1ccccc12`, inactive: -8.37%. The result for `CCOc1ccc(S(=O)(=O)N(CC(=O)Nc2ccc(OC)cc2OC)c2ccccc2)cc1` reads inactive: -6.21%; that for `COc1ccc(S(=O)(=O)N(CC(=O)N2CCc3ccccc3C2)c2ccc(C)cc2)cc1`, inactive: -1.16%. The result for `Cc1cccc2nc(Cn3c(=O)n(-c4ccc(Cl)cc4)c(=O)c4c5c(sc43)CCC5)cc(=O)n12` reads inactive: -3.07%; that for `CCOc1ccc(C(=O)Nc2cccc(C(=O)OCc3cc(=O)n4cc(C)sc4n3)c2)cc1`, inactive: -12.4%; that for `COc1ccc(-c2nc3ccccc3o2)cc1NC(=O)COc1ccc(C)c(C)c1`, inactive: 3.33%. Turning to `COc1ccc(OC)c(CNS(=O)(=O)c2ccc3c(c2)oc(=O)n3C)c1`, the activation was inactive: 3.04%.

Take `COc1ccc(Br)cc1CNC(=O)c1cc(=O)[nH]c2ccc(S(=O)(=O)N3CCCCC3C)cc12` (stereo not drawn): the activation was inactive: -35.2%. The result for `CCn1cc(C(=O)NCCc2ccccc2)c(=O)c2cc(S(=O)(=O)N3CCCCCC3)ccc21` reads inactive: -14.7%; that for `Cc1nn(C(C)C(=O)N2CCN(c3ccc(F)cc3)CC2)c(=O)c2c1sc1ccccc12` (stereo not drawn), inactive: -17.7%; that for `COc1ccc(N2C(=O)CS(=O)(=O)C23C(=O)N(Cc2ccccc2F)c2ccccc23)cc1Cl` (stereo not drawn), inactive: -30.3%. Take `CC(=O)N1c2ccc(S(=O)(=O)N3CCC(C(=O)Nc4cccc(Cl)c4C)CC3)cc2CC1C` (stereo not drawn): the activation is inactive: 10.5%. Take `CC1=C(C/C=C(\C)CCC[C@H](C)CCC[C@H](C)CCCC(C)C)C(=O)c2ccccc2C1=O`: the activation was inactive: 6.17%. With `Cc1cccc(C)c1NC(=O)C1CCCN1S(=O)(=O)c1ccccc1` (stereo not drawn) the figure was inactive: -5.58%.

Take `Cc1cccc(Cn2cc(S(=O)(=O)c3ccccc3)c(=O)c3cc(F)c(N4CCOCC4)cc32)c1`: the activation is inactive: -15.4%. The result for `CCOC(=O)Cn1c(=O)n(-c2cccc(Cl)c2)c2nc(-c3ccccc3Cl)nc(C(N)=O)c21` reads inactive: -0.551%; that for `Cc1ccc2c(CC(=O)Nc3ccc(S(=O)(=O)N4CCCCC4C)cc3)coc2c1C` (stereo not drawn), inactive: -16.5%. With `O=C(OCCOCCO)c1ccccc1Nc1cccc(C(F)(F)F)c1` the figure was inactive: 41.2%; with `CCc1ccc2ncc3c(-c4ccc(F)cc4)nn(CC(=O)NC4CCCCC4)c3c2c1`, inactive: 8.41%; with `Cc1ccccc1OC(=O)c1nc(SCc2ccccc2F)ncc1Cl`, inactive: 5.53%. With `COc1ccc(N2CCN(CCCNC(=O)c3nnc(Cc4ccc(F)cc4)o3)CC2)cc1` the figure was inactive: -12.9%. Consider `CN(C)c1ccc(CNC(=O)Cc2ccc(NC(=O)N3CCCCc4ccccc43)cc2)cc1`, for which the activation was inactive: -0.569%.

Take `Cc1ccc(CSc2nnc([C@@H](N)C(C)C)o2)cc1`: the activation was inactive: 11.6%. The result for `CCC(Oc1ccccc1)C(=O)Nc1cccc(OCc2cc(=O)n3cccc(C)c3n2)c1` (stereo not drawn) reads inactive: -21.7%; that for `Cc1c(C)c2c(cc(C)c3c(-c4ccc(Br)cc4)coc32)oc1=O`, inactive: -2.18%. The result for `CCOC(=O)c1cccc(NC(=O)CCn2c(=O)oc3ccccc32)c1` reads inactive: 20.1%; that for `CC(=O)c1ccc(NC(=O)Cn2c(=O)cc(C)c3c(C)nn(-c4cccc(F)c4)c32)cc1`, inactive: -20%. Take `COc1cccc(NC(=O)CSc2nc(C)c(Cc3ccccc3)c(=O)[nH]2)c1`: the activation is inactive: 10.1%. Take `CCOC(=O)c1c(C)[nH]c(C)c1S(=O)(=O)NCC(=O)Nc1cccc(SC)c1`: the activation is inactive: 2.74%. In the case of `CCC1CCc2nc3sc(C(=O)Nc4cccc(F)c4)c(N)c3cc2C1` (stereo not drawn), the activation was inactive: 14.4%. With `CCN(CC)c1ccc(C(=O)NCc2nc3cccnc3n2Cc2ccc(C)cc2)cc1` the figure was inactive: -25.9%; with `Cc1ccc(C2N=C(N)Nc3nc4ccccc4n32)cc1` (stereo not drawn), inactive: 17.2%; with `Cc1cccc(-c2nc3c4c(-c5ccccc5)c(-c5ccccc5)oc4ncn3n2)c1`, inactive: 14.5%. With `COc1cccc2sc(N(Cc3cccnc3)C(=O)c3ccco3)nc12` the figure was inactive: -28.2%; with `Cc1nn(C)c(C)c1S(=O)(=O)N(CC(=O)NCCc1ccc(Cl)cc1)c1ccc(C(C)C)cc1`, inactive: -14.5%; with `CCCCOc1ccc(C2=NC(c3cccs3)=Nc3ccc(OC)cc3N2)cc1`, inactive: -25.7%. The result for `COc1ccc(OC)c(CNC(=O)c2c(C)oc3ncn(CC(C)C)c(=O)c23)c1` reads inactive: -22.8%.

Values taken from PubChem BioAssay AID1346428 (National Center for Advancing Translational Sciences (NCATS), 2018).
